Source: the supplement of paper PMC10681739
In all, about 2,700 sequences were measured (“arbitrary fluorescence units”: median about 4,100, highest 2% from about 54,000 on). The list shows a part of the results.

biological target: T1, ETS1 (UniProt P14921); assay: ETS1 binding intensity (PBM fluorescence) (arbitrary fluorescence units); higher = stronger binding; conditions: ETS1 concentration 10 nM
T1 sequence: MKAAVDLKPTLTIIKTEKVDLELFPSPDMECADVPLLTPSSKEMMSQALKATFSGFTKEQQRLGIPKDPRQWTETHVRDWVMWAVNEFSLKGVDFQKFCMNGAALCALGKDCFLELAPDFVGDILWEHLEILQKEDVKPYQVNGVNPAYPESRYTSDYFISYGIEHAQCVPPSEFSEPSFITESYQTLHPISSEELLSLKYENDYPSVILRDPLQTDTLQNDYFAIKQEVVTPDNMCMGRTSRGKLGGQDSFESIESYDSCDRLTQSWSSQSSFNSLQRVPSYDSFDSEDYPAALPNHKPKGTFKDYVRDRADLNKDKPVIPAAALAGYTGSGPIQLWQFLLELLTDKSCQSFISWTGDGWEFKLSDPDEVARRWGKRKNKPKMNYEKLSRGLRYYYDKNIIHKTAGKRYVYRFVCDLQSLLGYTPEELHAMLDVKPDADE
Protocol: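 gcPBM on wild-type 36-bp genomic probes with two neighbouring ETS1 sites (4-24 bp apart). Recombinant human ETS1 (10 nM) was detected with anti-ETS1 antibody fluorescence. Values are medians over 3 replicate spots. The probes sit in constant array flanks that are not printed.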

Sequence	ETS1 binding intensity
AGCAGGAAGGACCTCAGTCCTCCAGTGCGGATGCTG	207
TCCACTTCCGGGTCCGGGACACCGCCCGGATCTTGC	64200
TGCCAAGTTACACTTCCTGTTTCCTCTCTGTGTGCC	31700
AATACACACAGGAAGCAGCCCATTTCCTCAGAAGTT	5650
GGGGCGGAAGTGGGTGTGGCCACGGGCGGAAGCACT	15200
CGCCGGTTGGGGGGAAGTAATTCCGGTTGTTGCACC	2060
CACCACTTCCTGTTTCTGAGTCATCAGGAAGGTAAT	58900
AACCAAAAGACAGGAAATAACGGATGCTGGTGAGAA	7280
AGACAAACATCCTCTTCAGCTAGAGGAAGCTCCTTC	6260
AAAGGGTAAACAGGATGTGACTTCCTGGATCACCAC	19500
GGCGCACTTCCTCTTTCTGGTTTTAGGATGTCACCT	20000
TCTATAGGAAACAGAGGTCAAGAGAGGGGAAGTGAC	189
TTGACTCTTCCGCAGCAGTCATAACATCCTGTCTTG	6330
CCTCGGTTCCTGTCTTCTGCTCCTGTTTCCGCTCTG	5570
GGAGCGGAAAGGTACCAGGGCAGCTGCTTTCCGCTG	284
ATCAAGCCTTCCGCGCCGCGATTTGGGATGTGGGAG	171
AACAGGAAGCCCAGGAGCAGGTCACTCAGGATGGGA	628
TCTCGACTTCCGGTTCACCCAGCATTTCCTCTTCCC	103000

Sequence	ETS1 binding intensity
AGCACCGGGAAGCGACCTCCCTGACGGAAGCGGGCG	432
GGGGCCTGCAGGAAGCCCCAGGAGGAAGCGAGACTT	761
CGAGTGCACAGGATACGGCTGCTTCCTCCCCTGGCT	2760
TATCAGAAACAGGATGCGCCCATCCTGGAGCTGGCG	3710
TACAACAGGATGTGGCCCAGAAAGCAGGAAGGGGGC	10500
GGCGGTGTGCCCCGGAAGCGGAAGTAGATTCTCCTA	10200
ATTTTCGGTCTTCCGGTCAGCCGGAACCACTCACAC	29800
CTCCCCAGGACGGAAGGTGGCCGGAAGAGCCCCGTC	1480
TTAGAGGAAACAGTAAATGATTAGTCATTTCCTCTG	526
CAGTGAGTCACGTTTCCGTTTCCTCTCACTGTTCCA	7310
GAAGTCAGTTTCCTGACTCTTGAAGGAAGTGGCCTT	4710
GAACCTCCTTGCCGGAAGCGGAAGTGCGTCACGGCG	7530
ACGGCTTCGGATGCTATGAAACTACTTCCGCATGAT	991
GACACAACTTCCGGCTTCTGGCGGCGGAAGAGGACA	90100
TCTCCAGGAAGTTGGTTGATGATGGACTTCCGAGGC	3450
TGACAAGGGAAGTGCCTCTAAGAAAGGAAGTAAAAT	560
GACTCTACAGCACTTCCGCCTTCCGTCGCGAGGGCC	28100
